About 450 (0.94%) of roughly 48,000 compounds were called active. Roughly 19% stayed inconclusive and do not appear here. Calls follow the shape of the dose curve; as a rule, active = well fitted inhibition curve with a large enough effect; inconclusive = small, poorly fitted or top-dose-only effect; inactive = no such curve, though single readings can be large or run the other way. Some of the results follow.
test: Primary qHTS for Identification of Small Molecule Inhibitors of Huntingtin Promoter Activity; conditions: HEK293 HTT promoter firefly luciferase reporter (activity 0% = vehicle and -100% = no light), 24 h; series mostly up to 57.5 µM; activity change, negative = inhibition: at the top concentration; also: nearly all actives have a fitted effect of over 50% in size
In short: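 Quantitative HTS used concentration series of up to 57.5 uM final on HEK293 luciferase reporter cells, 24 h at 37 degrees C. Readout was Dual-Glo firefly luminescence.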
Potency is read from the fitted curve at half-maximal effect.

| SMILES | activity change, negative = inhibition | Potency |
| --- | --- | --- |
| Cc1cc(NS(=O)(=O)c2ccc(NC(=O)COc3ccc(Br)cc3C)cc2)no1 | inactive: -19.6% | – |
| Cc1[nH]c(=O)[nH]c(=O)c1C1N2CC3(C(C)C)CN1CC(C(C)C)(C2)C3=O (stereo not drawn) | inactive: -11.5% | – |
| CCOC(=O)c1ccc(NC(=O)CN2C(=O)c3cccnc3Oc3ccc(Cl)cc32)cc1 | inactive: 1.32% | – |
| Cc1ccc(N2CCn3c2nc2c3c(=O)n(CCc3ccccc3)c(=O)n2C)cc1C | inactive: -5.75% | – |
| COc1cccc2c1cc1c(=O)n(CC(=O)N3CCCCC3)nc(C)n12 | inactive: -0.359% | – |
| Cc1ccc(C(=O)Nc2ccc(C(=O)O)cc2)cc1S(=O)(=O)Nc1ccccc1 | inactive: 19.2% | – |
| Cc1ccc(-n2c3c(c(=O)[nH]c2=O)C(NS(=O)(=O)c2ccc(Cl)cc2)(C(F)(F)F)C(=O)N3)cc1 (stereo not drawn) | inactive: -15.4% | – |
| O=c1c2oc3ccccc3c2n(Cc2ccc(Cl)cc2)c(=O)n1Cc1ccc2c(c1)OCO2 | inactive: -29% | – |
| Fc1cccc(NCc2ccccc2-c2nnc(-c3ccccc3Cl)o2)c1 | inactive: 81.8% | – |
| COCCNC(=O)CSc1nc2cc3c(cc2c(=O)n1CCCC(=O)NCCc1ccc(OC)c(OC)c1)OCO3 | inactive: -11.5% | – |
| CCC(C)(C)NC(=O)C1CCC(CNS(=O)(=O)c2ccc3c(c2)CC(C)N3C(C)=O)CC1 (stereo not drawn) | inactive: -15% | – |
| CCCCNC(=O)CCCN1C(=O)CCn2nc(-c3cccn3C)cc21 | inactive: -23.3% | – |
| CCOCCCNC(=O)CN1C(=O)c2cccnc2Sc2ccccc21 | inactive: -4.45% | – |
| Cc1ccc(Cl)cc1N1CCN(C2(c3ccccc3)C(=O)c3ccccc3C2=O)CC1 | inactive: -14.6% | – |
| CCN(CC)CCn1c(=O)c(Cc2ccc(OC)cc2)nc2ccccc21 | inactive: -2.11% | – |
| Fc1ccccc1N1CCN(c2nnc(C(F)(F)F)c3nnn(Cc4ccccc4)c23)CC1 | inactive: 0.701% | – |
| O=C(Cn1c(SCCOc2ccccc2Cl)nc2ccccc21)N1CCOCC1 | inactive: -5.68% | – |
| COc1ccc2c(CNCc3ccco3)c(C(=O)O)n(Cc3ccc(F)cc3Cl)c2c1 | inactive: -11% | – |
| COc1ccc(CCNc2ncnc3c2nnn3C)cc1OC | inactive: -26.2% | – |
| CCc1ccc(NC(=O)CSc2nc(-c3ccccc3)no2)cc1 | inactive: 21.3% | – |
| COc1ccccc1Cn1ccn(CC(=O)Nc2c(C)cc(C)cc2C)c(=O)c1=O | inactive: -25.5% | – |
| CC(C)C(=O)NC1CC(=O)N(c2ccc3c(c2)OCCO3)C1 (stereo not drawn) | inactive: 12.5% | – |
| Cc1nnc(N2CCN(c3ccc(Cl)cc3)CC2)c2c1nnn2Cc1ccc(F)cc1 | inactive: -11.5% | – |
| COc1cccc(C(c2sc3nc(-c4ccco4)nn3c2O)N2CCCC2)c1 (stereo not drawn) | inactive: 16.5% | – |
| COc1ccc(NC(=O)c2c(NCc3cccs3)sc3c2CCCCC3)cc1 | inactive: 7.79% | – |

| SMILES | activity change, negative = inhibition | Potency |
| --- | --- | --- |
| Cc1c(C(=O)Nc2cccc(F)c2)sc2nc(-c3cc4ccccc4oc3=O)[nH]c(=O)c12 | inactive: 0.0638% | – |
| Cc1ccc(-n2nc(C)c3c(C)cc(=O)n(CC(=O)Nc4ccc(C(C)C)cc4)c32)cc1 | inactive: -7.95% | – |
| CCc1ccc(NC(=O)C(=O)NCCc2sc(-c3ccc(OC)c(OC)c3)nc2C)cc1 | inactive: 4.33% | – |
| CC1CCCCN1C(=O)c1ccc2c(c1)N(Cc1ccc(Cl)cc1)C(=O)c1ccccc1S2=O (stereo not drawn) | inactive: -33.7% | – |
| CCOC(=O)c1[nH]c2ccccc2c1NC(=O)c1c(F)cccc1F | inactive: -3.62% | – |
| O=C(NCc1ccccc1Cl)c1ccc2c(c1)N(Cc1ccccc1)C(=O)c1ccccc1S2 | inactive: -12.6% | – |
| CCOC(=O)c1sc2ncn(CC(=O)Nc3cccc(C)c3)c(=O)c2c1C | inactive: -6.54% | – |
| CCc1cccc(NC(=O)c2cc(-c3ccccc3)n[nH]2)c1 | inactive: 11% | – |
| O=C(Nc1cccc(Cl)c1)C1CCN(c2nc3ccccc3nc2C(F)(F)F)CC1 | inactive: -5.62% | – |
| Cc1cc(OC(C)C(=O)N2CCN(CCc3ccccn3)CC2)ccc1Cl (stereo not drawn) | inactive: -17.9% | – |
| Cc1c(F)cccc1NS(=O)(=O)c1cccs1 | inactive: -17.7% | – |
| CCC(CC)C(=O)Nc1ccc(OCc2cc(=O)n3ccc(C)cc3n2)cc1 | inactive: -6.37% | – |
| CCOc1ccccc1N1CC(c2nc3ccccc3n2CCCOc2ccccc2)CC1=O (stereo not drawn) | inactive: -30% | – |
| CCOc1ccccc1C(N)=O | inactive: 7.97% | – |
| COc1ccc(C(C(=O)Nc2ccc(C(C)C)cc2)N(C)C(=O)Cc2cccs2)cc1 (stereo not drawn) | inactive: -20.2% | – |
| COc1ccc(S(=O)(=O)NC(C)C)cc1-n1cnnn1 | inactive: -14.3% | – |
| O=C(Nc1ccc(OC(F)(F)F)cc1)C1CCCN(S(=O)(=O)c2ccc(Br)s2)C1 (stereo not drawn) | inactive: -6.49% | – |
| O=C(Cc1csc2ccccc12)NCc1ccc(F)cc1 | inactive: 54.1% | – |
| CC(C)(C)c1ccc(C(=O)Nc2nc3nc(-c4ccccc4)cc(=O)n3[nH]2)cc1 | inactive: -20.4% | – |
| Cc1ccc(NC(=O)Cn2c(SCc3cccc(F)c3)nc3ccncc32)c(C)c1 | inactive: -18.3% | – |
| C#CC(C)(CC)NC(=O)Cn1nnc(-c2ccc(OCc3ccccc3Cl)cc2)n1 (stereo not drawn) | inactive: -33.7% | – |
| COc1ccc(Br)cc1CNC(=O)CN1C(=O)CCCc2ccccc21 | inactive: -11% | – |
| Cc1ccc2oc(C(=O)Nc3nc(-c4ccc(F)cc4)ns3)c(C)c2c1 | inactive: 1.66% | – |
| CCc1ccc(C(=O)c2cn(CC(=O)Nc3ccc4c(c3)OCCO4)c3ccc(CC)cc3c2=O)cc1 | inactive: -15.1% | – |
| COc1cccc(NC(=O)CSC2=Nc3ccccc3C3=NC(CC(=O)NCc4cccs4)C(=O)N23)c1 (stereo not drawn) | inactive: -6.08% | – |

| SMILES | activity change, negative = inhibition | Potency |
| --- | --- | --- |
| COc1ccc(C2c3c(oc4cc(C)cc(C)c4c3=O)C(=O)N2Cc2ccco2)cc1OC (stereo not drawn) | inactive: 0.345% | – |
| Cc1cccc(N2CCN(C(=O)c3cc4c(=O)[nH]c5ccc(C)cc5c4s3)CC2C)c1 (stereo not drawn) | – | active: 12.6 µM |
| COc1ccc(Cn2c(CNC(=O)Cc3cccc([N+](=O)[O-])c3)nc3cccnc32)cc1 | inactive: -4.36% | – |
| CC(=O)N1CCN(c2nc3c(F)cc(F)cc3s2)CC1 | inactive: 42.6% | – |
| Cc1cc(C)cc(NC(=O)c2sc3nc[nH]c(=O)c3c2C)c1 | inactive: 14.6% | – |
| CCOC(=O)Cn1c(=O)n(CC2CCCO2)c2nc(-c3ccccc3Cl)nc(C(N)=O)c21 (stereo not drawn) | inactive: -11% | – |
| CCOC(=O)c1ccc(CN(Cc2ccc(OC)cc2)S(=O)(=O)c2cccc(C(F)(F)F)c2)cc1 | inactive: 0.902% | – |
| COc1ccccc1C(=O)Nc1c(C(=O)c2ccccc2)oc2ccccc12 | inactive: -8.94% | – |
| CCOc1ccc(N(CC)C(=O)c2noc3c2COc2ccc(C)cc2-3)cc1 | inactive: -20.3% | – |
| O=c1c(N2CCc3ccccc3C2)csc2ccc(F)cc12 | inactive: 20.6% | – |
| CC1=C(C(=O)Nc2ccccc2C)C(c2cccs2)n2nc(SCc3cc(C)ccc3C)nc2N1 (stereo not drawn) | inactive: -7.78% | – |
| CCOc1ccccc1NC(=O)C1=C(C)Nc2ncnn2C1c1sccc1C (stereo not drawn) | inactive: -13.7% | – |
| O=C(CCCn1c(=O)c2cccn2c2cccnc21)Nc1ccccc1C(F)(F)F | inactive: -0.791% | – |
| CCn1c(CN2CCCCC2)nc2cc(NC(=O)COc3ccccc3C(C)(C)C)ccc21 | inactive: -34.7% | – |
| Cc1coc2c1c(C)cc1oc(=O)c(CC(=O)NCCc3ccc(Cl)cc3)c(C)c12 | inactive: -3.05% | – |
| Cc1ccc(NC(=O)C(=O)NCC(c2cccnc2)N2CCN(C)CC2)cc1 (stereo not drawn) | inactive: 0.422% | – |
| O=C(NCCc1ccc(Cl)cc1)C(=O)NCC(c1ccco1)S(=O)(=O)c1ccccc1 (stereo not drawn) | inactive: -24.6% | – |
| CCn1c2c(c(=O)n3ncc(C(=O)Nc4ccc(C(=O)OC)cc4)c13)CN(Cc1ccc(OC)cc1)CC2 | inactive: 11.3% | – |
| COc1ccc(CCNC(=O)c2c(O)nc3c(C)cccn3c2=O)cc1OC | inactive: -4.44% | – |
| COc1ccc(NC(=O)c2c(N)c(C(=O)c3ccc(OC)cc3)n3ccccc23)cc1 | inactive: -22.6% | – |
| CCn1c2ccccc2c2cc(CN3CCN(Cc4ccc(OC)c(OC)c4)CC3)ccc21 | inactive: -20.1% | – |
| CCOc1ccc(CC(=O)NCCS(=O)(=O)N2CCN(c3ccc(OC)cc3)CC2)cc1 | inactive: -29.8% | – |
| Cc1ccc(N(Cc2cccs2)C(=O)c2ccco2)cc1 | inactive: -14.6% | – |
| Nc1nn(-c2ccccc2)nc1C(=O)OCc1c(F)cccc1Cl | inactive: 40.3% | – |
| COc1cc(Nc2nc(SCC(=O)c3ccc(Cl)c(Cl)c3)nc3ccccc23)cc(OC)c1 | inactive: -23.7% | – |

| SMILES | activity change, negative = inhibition | Potency |
| --- | --- | --- |
| O=C(CCC1N=C2c3ccccc3N=C(SCC(=O)Nc3ccc(F)cc3)N2C1=O)NCc1ccco1 (stereo not drawn) | inactive: -2.94% | – |
| CC(C)N(C(=O)Cn1cc(S(=O)(=O)Cc2ccc(Cl)cc2)c2ccccc21)C(C)C | inactive: -18.4% | – |
| COc1ccc(-n2c(SCC(=O)NCc3ccccc3)nc3c([nH]c4ccccc43)c2=O)cc1 | inactive: -15.6% | – |
| COc1ccc(Nc2nn(-c3ccc(OC(F)(F)F)cc3)nc2C(C)=O)cc1 | inactive: 1.8% | – |
| Cc1cc(C(=O)NCc2ccccc2)c2c(C)nn(-c3cccc(F)c3)c2n1 | inactive: -38.1% | – |
| COc1ccc(NC(=O)CC2Nc3ccccc3NC2=O)cc1 (stereo not drawn) | inactive: 11.5% | – |
| COc1cc(OC)c(NC(=O)N2CCC(CN3CCCC3)CC2)cc1Cl | inactive: -17.1% | – |
| CCOC(=O)c1ccc(Nc2nn3c(=O)c4ccccc4nc3s2)cc1 | inactive: 0.979% | – |
| COc1ccc(OC)c(NC(=O)c2ccc3c(Cl)c4c(nc3c2)CCCC4)c1 | inactive: -5.57% | – |
| CCCCN(C)C(=O)Cn1cnc2sc(C)c(S(=O)(=O)N3CCC(C)CC3)c2c1=O | inactive: -21.9% | – |
| Cc1nn(-c2ccccc2)c2c1N(CC(=O)N1CCN(c3ccccc3F)CC1)C(=O)CS2 | inactive: -20.1% | – |
| CCN(CC)c1ccc(C2Nc3ccccc3-c3cc(C)nn32)cc1 (stereo not drawn) | inactive: -11.4% | – |
| CCCCN(CCCNC(=O)c1cc(Nc2ccccc2OC)nc2ccccc12)c1ccccc1 | inactive: -10.6% | – |
| COc1ccc(CNC(=O)c2cccn2-c2nnc(N3CCCC3)s2)c(OC)c1 | inactive: -22.3% | – |
| COc1ccc(NC(=O)c2oc3ccccc3c2NC(=O)C2CCCCC2)c(OC)c1 | inactive: -8.83% | – |
| Cc1cccc(-n2c(=O)c3c4c(sc3n3c(C)nnc23)CCCC4)c1 | inactive: -12.4% | – |
| Nc1c(C(=O)Nc2ccccc2)sc2nc3c(cc12)CN(Cc1ccccc1)CC3 | inactive: -3.73% | – |
| CCCCN(C)C(=O)c1ccc2c(c1)N(Cc1cccc(F)c1)C(=O)c1ccccc1S2 | inactive: -5.93% | – |
| CCOc1cc(C#N)c(-n2nnc3c(sc4nc(C)cc(C)c43)c2=O)cc1OCC | inactive: -2.63% | – |
| NS(=O)(=O)c1ccc(C(=O)O)cc1 | inactive: 9.38% | – |
| Cc1cc(C)c(/C=C/c2onc(C)c2S(=O)(=O)N2CCC(C(=O)NCCc3ccccc3)CC2)c(C)c1 | inactive: -23% | – |
| O=C(Cn1c(=O)c2cccn2c2ccccc21)NCc1ccccc1F | inactive: 1.07% | – |
| COC(=O)c1ccc(NC(=O)Cn2cnc3c2c(=O)n(C)c(=O)n3C)cc1 | inactive: -2.2% | – |

From PubChem BioAssay AID1508623 (National Center for Advancing Translational Sciences (NCATS), 2021)
